In PubChem BioAssay (NCI):
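Interpolation was linear, between the two tested concentrations surrounding the appropriate level; five concentrations were tested over 48 hours in 96-well plates. GI50: concentration for 50% inhibition of growth. TGI is the concentration that stops growth completely.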

tested on: NCI-H322M lung; test: NCI anticancer screen, dose series, 48 h

Row | Compound | TGI | GI50
1 | CC1CC[C@@]2(OC1)OC1C[C@H]3[C@@H]4CCC5CC(O)CC[C@]5(C)[C@H]4C/C(=N\N(C)C)[C@]3(C)C1[C@@H]2C (stereo partly specified) | 69.3 µM | –
2 | O=C1c2cc([N+](=O)[O-])sc2C(=O)c2ccsc21 | 3.05 µM | –
3 | Oc1c(CN2CCOCC2)cc(COCc2ccccc2)c2cccnc12 | > 100 µM | 2.79 µM
4 | O=S(=O)(O)ONC1=NCCN1 | > 100 µM | > 100 µM
